Measurements as given in the supplement of paper PMC12889115.
The list shows a part of the results. Cut-off read from the data, not from the text of the source: active = 25% or less and inactive = the rest. Repeats are few or missing, and single values can be far off.

Legend:
[1] = tested on: Salmonella enterica serovar Typhimurium SL1344; test: bacterial growth OD600 after 18 h in MHB with 0.5 µg/mL polymyxin B; higher = more bacterial growth (less inhibition); conditions: 25 µM; polymyxin B 0.5 µg/mL; system: broth
Procedure: (§1)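 Secondary screen of the 553 primary hits at 25 µM. (i) S. Typhimurium SL1344 grown in Mueller-Hinton broth with 0.5 µg/mL polymyxin B, OD600 read after 18 h. (ii) SAFIRE assay: RAW 264.7 macrophages infected with S. Typhimurium sifB::gfp (MOI 30); compound added 2 h post-infection; cells fixed at 18 h; GFP-positive pixel fraction per macrophage imaged by confocal microscopy and expressed as % of DMSO control.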

[2] = tested on: Salmonella enterica serovar Typhimurium SL1344; test: intramacrophage bacterial GFP load (SAFIRE), percent of DMSO control (% of DMSO); higher = more intracellular bacteria (less inhibition); conditions: 25 µM; system: infected RAW 264.7 macrophages
Procedure: as §1
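Throughout, for bacterial growth OD600 after 18 h in MHB with 0.5 µg/mL polymyxin B: polymyxin B level opens the outer membrane while sparing the inner membrane, with novobiocin wells as reference growth inhibitor.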
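Throughout, for intramacrophage bacterial GFP load (SAFIRE), percent of DMSO control: compounds tested were the hits of an earlier 50 µM broth growth screen of a drug-like diversity library run with polymyxin B.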

SMILES | bacterial growth OD600 [1] | intramacrophage bacterial GFP load [2]
Cc1cc(C(=O)N(C)C(Cc2ccccc2)C2CCN(C(=O)/C(F)=C/c3ccccc3)CC2)n(C)n1 (stereo not given) | 0.003 | inactive: 40
CCS(=O)(=O)Nc1cc(C(=O)N(C)C(C)c2cccs2)c2c(c1)nc(-c1ccccc1)n2C (stereo not given) | 0.008 | inactive: 178
COc1cccc(CNC(=O)C2(N3C[C@@H](C)O[C@@H](C)C3)Cc3ccccc3C2)c1 | 0.007 | active: 18.1
COCCCN1C(=O)CC(CC(=O)N2CCC(c3ccc(F)cc3)C2)(c2ccccc2Cl)C1=O (stereo not given) | 0.051 | inactive: 81.2
CC(C(=O)N(Cc1ccncc1)Cc1cccc(OCCc2ccc(F)cc2)c1)c1n[nH]c(=O)c2ccccc12 (stereo not given) | 0 | inactive: 48.7
